According to PMC12040169 (PLOS Biology, 2025):
The list shows a part of the results.

System: T1, C. trachomatis L2/434/Bu expressing GFP (CTL2-GFP)
T1 construct: L2/434/Bu GFP intracellular growth in HeLa cells
Parameters: species or system HeLa; C. trachomatis total inclusion area by high-content imaging, normalised to DMSO
Settings: total inclusion area; 28.5 h, 10 µM; inhibitor
Method in brief: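 High-content images of fixed, Hoechst-stained infected cultures supply inclusion area and count (growth) plus nuclei number (viability), complementing bulk GFP/resorufin fluorescence. MIC determination is unchanged from the primary assay.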

Row | Compound | % of control remaining
1 | Cc1ccc(-c2nn(CCC#N)cc2C(=O)N2CCCCC2)cc1C [CBK306131] | 42.5102
2 | COC(=O)c1cc(CN2CCCN(S(=O)(=O)c3ccc(C(F)(F)F)cc3Cl)CC2)cn1C [CBK063097] | 87.8104
3 | O=S(=O)(NCc1ccccc1)c1ccc(Cl)cc1 [CBK086159] | 92.9393
4 | CCOc1cccc(-c2cn3ccnc3c(N3CCN(CCO)CC3)n2)c1 [CBK066612] | 129.137
5 | O=C(NCCc1c[nH]c2ccccc12)c1ccc(-c2ccco2)nc1N1CCN(C(=O)c2ccco2)CC1 [CBK076217] | 101.391
6 | CC(=O)N1CCC[C@H]2NC(=O)CNC(=O)C3(C/C=C/C[C@H]21)CCN(c1ncccn1)CC3 [CBK292042] | 83.1552
7 | CN(Cc1c(C2CCNCC2)[nH]c2ncccc12)C1CCCCC1 [CBK285079] | 89.2636
8 | CCNC(=O)N1Cc2nc[nH]c2C[C@H]1C(=O)NCc1ccc(C#N)cc1 [CBK288975] | 109.568
9 | CC(=O)[C@H]1CC[C@H]2[C@@H]3CC[C@H]4CC5(CC[C@]4(C)[C@H]3CC[C@]12C)N=C1C=C(C(C)(C)C)ON1C1C=CCC15 (stereo partly drawn) [CBK303246] | 0.2873
10 | CCC(c1nc2ccccc2c(=O)n1CCCn1ccnc1)N1C(=O)c2ccccc2C1=O (stereo not drawn) [CBK268560] | 86.4488
11 | Cc1ccc(Cl)cc1N1CCN(CC(O)COCc2ccc3c(c2)OCO3)CC1 (stereo not drawn) [CBK278308C] | 85.829
12 | CN(C)c1nc2c(c(=O)[nH]c(=O)n2C)n1Cc1cccc2ccccc12 [CBK140560] | 120.85
13 | O=C(CSc1ccc2nnc(-c3cccc(F)c3)n2n1)Nc1nccs1 [CBK287522] | 104.164
14 | Fc1ccc(-c2n[nH]c(=S)n2CCCN2CCOCC2)cc1 [CBK267127] | 113.135
15 | COc1ccc(Cl)cc1-n1c(-c2ccc3ccccc3n2)n[nH]c1=S [CBK288382] | 99.4017
16 | COc1c(C)cnc(COC(=O)N2C[C@@H](C)O[C@@H](C)C2)c1C [CBK200143] | 73.5407
17 | O=C(COc1cccnc1)N1CCCC2(CCN(C(=O)Cc3c[nH]c4ccccc34)C2)C1 (stereo not drawn) [CBK131608] | 68.4479
18 | CCOc1ccc(-c2ccnc(NCC3CCCOC3)n2)cc1C(=O)O (stereo not drawn) [CBK307694] | 94.4389
19 | CC/C(=C\c1sc2ccc3ccccc3c2[n+]1CCCS(=O)[O-])SC [CBK264941] | 102.92
20 | CCN1CCCC1CN(Cc1ccncc1)Cc1ccoc1 (stereo not drawn) [CBK283171] | 99.4607

Row | Compound | % of control remaining
21 | COc1cc(C)c(Nc2cc(-c3ccc(F)c(F)c3)ncn2)cc1OC [CBK090787] | 50.7615
22 | O=C(c1ccc([N+](=O)[O-])cc1Cl)N1CCN(Cc2ccccc2)CC1 [CBK261778] | 99.9435
23 | Cc1cc(N2CCCC2)c(F)cc1CN1CCC(CO)C1 (stereo not drawn) [CBK282916] | 91.8899
24 | COc1ccc(C(=O)C2=C(O)C(=O)N(CCN(C)C)C2c2cccc([N+](=O)[O-])c2)cc1C (stereo not drawn) [CBK264875] | 105.068
25 | O=C(c1ccc(OC(F)(F)F)cc1)N1CCC2(CCCNC2)C1 (stereo not drawn) [CBK137156C] | 78.8387
26 | Cc1nn(-c2ccc(F)cc2)c2[nH]c(=O)c(CNC3CC3)cc12 [CBK283121] | 98.0827
27 | O=C1NC2(CCSCC2)Oc2ccccc21 [CBK007488] | 81.1767
28 | O=C(NC(c1ccccc1)c1ccccc1)N1CCCC(CO)C1 (stereo not drawn) [CBK156036] | 98.0649
29 | CN(C)CCn1c(C(=O)O)cc2ccccc21 [CBK268234C] | 88.6101
30 | O=S(=O)(Nc1cccc(-c2nnn[nH]2)c1)c1ccc(F)cc1 [CBK050470] | 99.1071
31 | Cc1ccc(C(=O)NC(C)c2nc3ccccc3n2Cc2ccc(C(=O)O)o2)cc1 (stereo not drawn) [CBK295159] | 98.4819
32 | CC(C)N1CCCC(CNC(=O)C2Cc3cc(Cl)ccc3O2)C1 (stereo not drawn) [CBK282686] | 108.428
33 | O=S(=O)(CCN1CCN(Cc2ccccc2)CC1)c1ccc(F)cc1 [CBK074809] | 60.011
34 | CC(C)NC(=O)C1(Cc2ccc(-c3ccccc3F)cc2)CCN(C(=O)C(C)C)CC1 [CBK285754] | 98.1912
35 | CSc1nc2ccc(S(=O)(=O)NCCOc3ccc(Cl)cc3)cc2s1 [CBK268219] | 98.1289
36 | c1ccc(CCN2CCN(Cc3cccnc3)CC2)cc1 [CBK126424] | 104.133
37 | Cc1cc(S(=O)(=O)Nc2ccccc2-c2nncn2C)c(C)o1 [CBK306414] | 53.4194
38 | CS(=O)(=O)c1ccc(-c2ccc(OCC3CCN(C(=O)c4cccc(C#N)c4)CC3)nc2)cc1 [CBK162283] | 54.2668
39 | CCOc1oc2cc(O)ccc2c1C(=O)CSC1CCCCC1 [CBK022262] | 33.0435
